# Data: the supplement of paper PMC8728848
# The other results are listed elsewhere or left out.
# B1: Epa22 (Candida glabrata) (protein)
# chain: MGSSHHHHHHSSGLVPRGSHMKRALSSQNPFGYPIGCSPQSTNVIPGLTMELYSYPIVSGTPPNCYDASYVDPEYPRTGYLKRKMIGKSTGVTGSLNYKFSVEKACMVKYGNLPAGYNYNEPLTVSNFTMLLYGYFKPQTSGIHTFFVNADDLLYINFGAGNAFDCCKREDSKFKLGEYVAYDIWHVDSSKNKVSLNLEKDVYYPIRMFFNNIGKDSSLDLSFSVNGAVEHITDFSGYLYSVPDQPDACPAPIGYDTTCK
# Columns and labels:
# Experiment in all cases: glycan array binding signal (z-score within array); higher = stronger binding
# Settings in all cases: glycan notation: IUPAC condensed, linker removed
# [1] = target: Neu5Ac(a2-8)Neu5Ac
# Procedure, shortened: (§1)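 The binding signal is a Z-score computed within each array. Data were drawn from 3228 arrays in the Consortium for Functional Glycomics database, restricted to those with a known protein sequence. Scores were averaged over arrays of the same protein sequence at different concentrations or buffers, and over linkers, and negative values can be taken as non-binding.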
# [2] = target: Neu5Ac(a2-8)Neu5Ac(a2-3)Gal(b1-3)GalNAc(b1-4)[Neu5Ac(a2-3)]Gal(b1-4)Glc
# Procedure, shortened: as §1
# [3] = target: Neu5Ac(a2-8)Neu5Ac(a2-3)Gal(b1-3)GalNAc(b1-4)[Neu5Ac(a2-8)Neu5Ac(a2-3)]Gal(b1-4)Glc
# Procedure, shortened: as §1
# [4] = target: Neu5Ac(a2-8)Neu5Ac(a2-3)Gal(b1-4)Glc
# Procedure, shortened: as §1
# [5] = target: Neu5Ac(a2-8)Neu5Ac(a2-3)Gal(b1-4)GlcNAc
# Procedure, shortened: as §1
# [6] = target: Neu5Ac(a2-8)Neu5Ac(a2-3)[Gal(b1-3)GalNAc(b1-4)]Gal(b1-4)Glc
# Procedure, shortened: as §1
# [7] = target: Neu5Ac(a2-8)Neu5Ac(a2-3)[GalNAc(b1-4)]Gal(b1-4)Glc
# Procedure, shortened: as §1
# [8] = target: Neu5Ac(a2-8)Neu5Ac(a2-8)Neu5Ac
# Procedure, shortened: as §1
# [9] = target: Neu5Ac(a2-8)Neu5Ac(a2-8)Neu5Ac(a2-3)Gal(b1-4)Glc
# Procedure, shortened: as §1
# [10] = target: Neu5Ac(a2-8)Neu5Ac(a2-8)Neu5Ac(a2-3)[Gal(b1-3)GalNAc(b1-4)]Gal(b1-4)Glc
# Procedure, shortened: as §1
# [11] = target: Neu5Ac(a2-8)Neu5Ac(a2-8)Neu5Ac(a2-3)[GalNAc(b1-4)]Gal(b1-4)Glc
# Procedure, shortened: as §1
# [12] = target: Neu5Ac(a2-8)Neu5Ac(a2-8)Neu5Ac(a2-8)Neu5Ac(a2-3)[GalNAc(b1-4)]Gal(b1-4)Glc
# Procedure, shortened: as §1
# [13] = target: Neu5Ac(a2-8)Neu5Gc(a2-3)Gal(b1-4)GlcNAc
# Procedure, shortened: as §1
# [14] = target: Neu5Ac(b2-6)Gal(b1-4)GlcNAc
# Procedure, shortened: as §1
# [15] = target: Neu5Ac(b2-6)GalNAc
# Procedure, shortened: as §1
# [16] = target: Neu5Ac9Ac(a2-3)Gal(b1-3)GlcNAc
# Procedure, shortened: as §1
# [17] = target: Neu5Ac9Ac(a2-3)Gal(b1-4)GlcNAc
# Procedure, shortened: as §1
# [18] = target: Neu5Ac9Ac(a2-6)Gal(b1-4)GlcNAc
# Procedure, shortened: as §1
# [19] = target: Neu5Gc(a2-3)Gal(b1-3)GlcNAc
# Procedure, shortened: as §1
# [20] = target: Neu5Gc(a2-3)Gal(b1-3)[Fuc(a1-4)]GlcNAc
# Procedure, shortened: as §1
# [21] = target: Neu5Gc(a2-3)Gal(b1-4)Glc
# Procedure, shortened: as §1
# [22] = target: Neu5Gc(a2-3)Gal(b1-4)GlcNAc
# Procedure, shortened: as §1
# [23] = target: Neu5Gc(a2-3)Gal(b1-4)GlcNAc(b1-3)Gal(b1-4)GlcNAc(b1-2)Man(a1-3)[Neu5Gc(a2-3)Gal(b1-4)GlcNAc(b1-3)Gal(b1-4)GlcNAc(b1-2)Man(a1-6)]Man(b1-4)GlcNAc(b1-4)GlcNAc
# Procedure, shortened: as §1
# [24] = target: Neu5Gc(a2-3)Gal(b1-4)[Fuc(a1-3)]GlcNAc
# Procedure, shortened: as §1
# [25] = target: Neu5Gc(a2-6)Gal(b1-4)GlcNAc
# Procedure, shortened: as §1
# [26] = target: Neu5Gc(a2-6)GalNAc
# Procedure, shortened: as §1
# [27] = target: Neu5Gc(a2-8)Neu5Ac(a2-3)Gal(b1-4)GlcNAc
# Procedure, shortened: as §1
# [28] = target: Neu5Gc(a2-8)Neu5Gc(a2-3)Gal(b1-4)GlcNAc
# Procedure, shortened: as §1
# [29] = target: Neu5Gc(a2-8)Neu5Gc(a2-3)Gal(b1-4)GlcNAc(b1-3)Gal(b1-4)GlcNAc
# Procedure, shortened: as §1
# [30] = target: Neu5Gc(a2-8)Neu5Gc(a2-6)Gal(b1-4)GlcNAc
# Procedure, shortened: as §1
# [31] = target: Neu5Gc(b2-6)Gal(b1-4)GlcNAc
# Procedure, shortened: as §1
binder,measurement,setting,value
B1,glycan array binding signal (z-score),[1],-0.352
same,glycan array binding signal (z-score),[2],-0.322
same,glycan array binding signal (z-score),[3],-0.003
same,glycan array binding signal (z-score),[4],-0.157
same,glycan array binding signal (z-score),[5],-0.191
same,glycan array binding signal (z-score),[6],-0.345
same,glycan array binding signal (z-score),[7],-0.322
same,glycan array binding signal (z-score),[8],-0.353
same,glycan array binding signal (z-score),[9],-0.38
same,glycan array binding signal (z-score),[10],-0.369
same,glycan array binding signal (z-score),[11],-0.401
same,glycan array binding signal (z-score),[12],-0.364
same,glycan array binding signal (z-score),[13],-0.344
same,glycan array binding signal (z-score),[14],-0.428
same,glycan array binding signal (z-score),[15],-0.413
same,glycan array binding signal (z-score),[16],-0.366
same,glycan array binding signal (z-score),[17],-0.368
same,glycan array binding signal (z-score),[18],-0.23
same,glycan array binding signal (z-score),[19],-0.393
same,glycan array binding signal (z-score),[20],-0.403
same,glycan array binding signal (z-score),[21],-0.398
same,glycan array binding signal (z-score),[22],-0.411
same,glycan array binding signal (z-score),[23],-0.398
same,glycan array binding signal (z-score),[24],-0.382
same,glycan array binding signal (z-score),[25],-0.332
same,glycan array binding signal (z-score),[26],-0.418
same,glycan array binding signal (z-score),[27],-0.251
same,glycan array binding signal (z-score),[28],-0.296
same,glycan array binding signal (z-score),[29],-0.313
same,glycan array binding signal (z-score),[30],-0.224
same,glycan array binding signal (z-score),[31],-0.282
